From PubChem BioAssay AID1508642 (National Center for Advancing Translational Sciences (NCATS), 2021)
About 200 (0.47%) of roughly 43,000 compounds were called active. Not shown: some 12% with an inconclusive outcome. The call rests on the fitted dose curve; in most records, active means well fitted cell-killing curve with a large enough effect; inconclusive means small, poorly fitted or top-dose-only effect, or effect the other way; inactive means flat fitted curve, though single readings scatter. This is one part of the list.

Assay: Cell viability qHTS assay in S16 Pmp22-F2sN cells; further: nearly all actives have a fitted effect of over 65% in size
Conditions: S16 Pmp22-F2sN Schwann cells (luciferase reporters placed in the Pmp22 gene) viability, CellTiter-Glo, 24 h; series mostly up to 57.5 µM; activity change, negative = cytotoxicity: at the top concentration
How it was run: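 Luminescence from CellTiter-Glo, read by CCD camera after a 15 min room-temperature incubation, served as the viability signal. Reporter Schwann cells (S16 Pmp22-F2sN) had been treated with pin-transferred compounds for 24 h at 37C.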
On the % scale 0 is the no-effect control and ±100 the full control effect.

SMILES	activity change, negative = cytotoxicity
COc1ccc(NC(=O)Cn2c(=O)c3ccccc3n3nncc23)cc1Cl	inactive: -1.49%
CN(c1nnc(NC(=O)Nc2ccccc2C(F)(F)F)s1)C1CCCCC1	inactive: -0.188%
Cc1c2cnn(CC(=O)NC(C)C)c(=O)c2c(C)n1Cc1cccc(Cl)c1	inactive: 0.787%
COc1ccc(/C=C/c2nc(C#N)c(NCc3ccc(C)cc3)o2)cc1OC	inactive: 5.33%
O=C(NCCc1ccccc1)c1ccc2c(c1)N(Cc1ccc(F)cc1Cl)C(=O)CS2	inactive: 7.12%
CCNC(=O)c1ccc2c(c1)sc1nc(-c3cccc(OC)c3)cn12	inactive: -14.9%
CC(Oc1ccccc1)C(=O)Nc1cccc(-c2cn3cccnc3n2)c1 (centres undefined)	inactive: 6.44%
CCc1ccc(OC(=O)CSc2nnc(-c3ccc(OC)c(OC)c3)o2)cc1	inactive: -3.41%
Cc1c(C(=O)OC2CCC(C)CC2)[nH]c2c1C(=O)CC(c1ccc(N(C)C)cc1)C2 (centres undefined)	inactive: 8.73%
COc1ccc(S(=O)(=O)c2c(C(=O)c3ccc(C)c(C)c3)cnc3ccc(C)cc23)cc1	inactive: 1.87%
CCOc1nc(-c2ccccc2)ccc1-c1noc(-c2ccc(C)cc2)n1	inactive: 5.91%
CCOc1ccc(NC(=O)CC2C(=O)N(c3ccccc3)C(=O)N2CCc2sccc2C)cc1 (centres undefined)	inactive: -21.8%
COc1ccc2c(c1)c(CC(=O)Nc1cc(C)cc(C)c1)c(C)n2C(=O)c1ccc(Cl)cc1	inactive: -2.93%
CCOc1cc(S(=O)(=O)NCCc2c(C)[nH]c3ccc(C)cc23)ccc1F	inactive: -5.19%
CCN(CC)C(=O)c1sc2c(c1C)c(=O)n(Cc1ccccc1)c(=O)n2Cc1cc(C)ccc1C	inactive: 4.41%
COc1ccc(C)cc1NC(=O)c1sc2nc(-c3ccc(F)cc3)cn2c1C	inactive: 1.36%
O=C(Nc1ccccc1C(F)(F)F)c1cc2nc(-c3ccccc3)cc(-c3ccccc3)n2n1	inactive: 19.2%
COc1ccccc1NC(=O)c1sc(-c2ccc(Cl)cc2)cc1N	inactive: -2.43%
CCc1ccc2c(c1)NC(c1ccc(F)cc1)=NC(c1ccncc1)=N2	inactive: -13.2%
Cc1cc(C)c2oc(C(=O)Nc3ccc(S(=O)(=O)Nc4ncccn4)cc3)cc(=O)c2c1	inactive: -2.48%
O=C(CCCn1ncn2c(cc3occc32)c1=O)NCc1ccccc1F	inactive: -2.11%
Cc1cc2c(cc1S(=O)(=O)C(C)CC(=O)NC1CCC(C)CC1)OCC(=O)N2 (centres undefined)	inactive: -3.94%
COc1ccc2c(CNC3CCCCCC3)c(C(=O)O)n(Cc3ccc(C)cc3)c2c1	inactive: 8.76%
COc1ccc(CNC(=O)CN2C(=O)COc3ccc(S(=O)(=O)N4CCCCC4)cc32)cc1	inactive: 10.4%

SMILES	activity change, negative = cytotoxicity
Cc1ccc(-c2noc(-c3cccnc3NCc3ccco3)n2)cc1	inactive: 20.7%
Cc1cc(F)ccc1NC(=O)Cn1nc(N2CCN(c3ccccc3)CC2)ccc1=O	inactive: 12.3%
CCc1nnc(SCc2cccc(Cl)c2)c2cc3sccc3n12	inactive: -24.1%
Cc1cc(C)c(NC(=O)CSc2nc3nccnc3c(=O)n2CCc2c[nH]c3ccccc23)c(C)c1	inactive: -2.05%
CCOc1cccc(C(=O)Nc2ccc3oc(-c4ccncc4)nc3c2)c1	inactive: 15.7%
COc1ccc(-c2cc(OC(=O)c3ccccc3Cl)c3c(C)oc(C)c3c(=O)c2)cc1OC	inactive: -20.8%
CCCSc1oc(-c2cccs2)nc1S(=O)(=O)c1ccc(C)cc1	inactive: 3.33%
O=C(Nc1cccc(C(=O)OCc2cc(=O)n3c4c(sc3n2)CCCC4)c1)c1ccc(Cl)cc1	inactive: -39%
COc1ccc(NC(=O)Cn2c(=O)n(CCCCCC(=O)NCc3ccc4c(c3)OCO4)c(=O)c3sccc32)cc1Cl	inactive: 5.1%
Cc1ccc(Cn2c(C)c3cnn(CC(=O)O)c(=O)c3c2C)cc1	inactive: 13.4%
O=C(Cn1cc(SCc2ccc(F)cc2)c2ccccc21)N1CCCCC1	inactive: -11.9%
CCOc1ccc(CNC(=O)CCCn2c(=O)c3cccn3c3ccccc32)cc1	inactive: -17.7%
COc1ccc(-c2nc(CN3CCC(C(=O)NCc4ccc(C)cc4)CC3)c(C)o2)cc1OC	inactive: 6.36%
CC(=O)N1CCCc2cc(S(=O)(=O)N3CCC(C(=O)Nc4c(C)cccc4C)CC3)ccc21	inactive: -1.27%
COc1ccc(CCNC(=O)C(=O)NCC(c2cccs2)S(=O)(=O)c2cccs2)cc1 (centres undefined)	inactive: -2.68%
CCOc1ccccc1Nc1nc2ccccc2nc1NS(=O)(=O)c1ccc(Cl)cc1	inactive: 6.33%
COc1ccc(C(=O)n2nc(-c3cccnc3)nc2NCc2ccccc2)cc1OC	inactive: -11.1%
Cc1ccc(Sc2ccc(N3CCCC(C(=O)Nc4ccc(F)cc4)C3)nn2)cc1 (centres undefined)	inactive: 2.04%
CCN(CC)C(=O)CSc1nc2cc3c(cc2c(=O)n1CCCC(=O)NCc1ccc2c(c1)OCO2)OCO3	inactive: -8.46%
COc1ccc(-c2cn3c(n2)sc2cc(C(=O)NCCCc4ccccc4)ccc23)cc1	inactive: 12.2%
O=C(Cn1nc(N2CCN(c3ccccc3)CC2)ccc1=O)NCc1ccccc1F	inactive: 18.8%
COc1cccc2c1cc1c(=O)n(CC(=O)N3CCN(c4ccc(F)cc4)CC3)nc(C)n12	inactive: 4.84%
COc1ccc2nc(SCC(O)c3cccc(Br)c3)[nH]c2c1 (centres undefined)	inactive: -1.39%
CCCS(=O)(=O)c1nc(S(=O)(=O)c2ccc(C)cc2)c(NCCCOC(C)C)s1	inactive: -12.4%

SMILES	activity change, negative = cytotoxicity
Cn1c(=O)c2c(nc(NCCc3ccccc3)n2Cc2ccccc2Br)n(C)c1=O	inactive: 9.8%
CCOc1ccc(C(=O)N(Cc2nc(-c3cccc(C)c3)no2)C(C)C)cc1	inactive: 0.362%
CCOc1ccc(NC(=O)c2cn(C3CCCCC3)c(=O)c3c2c2ccccc2n3C)cc1	inactive: -0.0338%
Cc1cccc(C(=O)Nc2ccccc2OCc2cc(=O)n3ccccc3n2)c1	inactive: 15.7%
Cc1ccc(-c2nnc(SCC(=O)NC(C)(C)C)nc2-c2ccc(C)cc2)cc1	inactive: 1.53%
Cc1nnsc1C(=O)Oc1ccc(C#N)cc1	inactive: -1.31%
O=C(CN1C(=O)C2(SCC(=O)N2c2cccc(F)c2)c2ccccc21)NCc1ccccc1Cl (centres undefined)	inactive: -17.6%
Clc1ccc(CN2CCc3nc(N4CCN(c5ccccn5)CC4)ncc3C2)cc1	inactive: 16.9%
CCOC(=O)c1ccc(Oc2nc(C)nc3c2oc2ccccc23)cc1	inactive: 6.41%
CC(C)(C)c1ccc(S(=O)(=O)c2cnc(SCC(=O)Nc3ccc4c(c3)OCCO4)[nH]c2=O)cc1	inactive: -2.33%
CC(C)CC(=O)NCC(c1ccc2c(c1)OCO2)N1CCN(c2ccc(F)cc2)CC1 (centres undefined)	inactive: 0.0038%
Cc1ccc(-n2ncc(C(=O)NCc3ccccn3)c2C2CCN(C(=O)OC(C)(C)C)CC2)cc1C	inactive: -24.1%
Cc1ccc(NC(=O)CSc2nc3ccccc3nc2Cc2ccccc2)c(Cl)c1	inactive: 2.25%
Cc1nnc2c3ccccc3nc(Nc3ccccc3C(=O)O)n12	inactive: -3.16%
CCn1ccc2cc(S(=O)(=O)N3CCC(C(=O)NCC(C)c4ccccc4)CC3)ccc21 (centres undefined)	inactive: -1.34%
CCOc1ccc(S(=O)(=O)NCc2ccc3c(c2)CCN3C(=O)c2ccc(C)cc2)cc1	inactive: -10%
O=C(COc1ccc(Cl)cc1)Nc1ccc2nc(SCC(=O)N3CCOCC3)sc2c1	inactive: 8.44%
Cc1ccc(CN2c3ccccc3-c3nc(SCC(=O)NCCc4ccccc4)ncc3S2(=O)=O)cc1	inactive: 2.17%
CCN(CC)CCNC(=O)c1ccc(-c2nc(CN3CCc4ccccc43)c(C)o2)cc1	inactive: -22.3%
CCOC(=O)c1cccc(NC(=O)CSc2cc(=O)n(C)c3ccccc23)c1	inactive: -3.05%
CC(=O)N1CCCc2cc(S(=O)(=O)NCc3ccccc3Cl)ccc21	inactive: -26.3%
CCN1CCC(N(Cc2ccc3c(c2)OCO3)C(=O)Nc2cccc(C)c2C)CC1	inactive: 0.908%
COc1ccc(Nc2ncc3c(n2)CCN(Cc2cccc(F)c2F)C3)c(OC)c1	inactive: 3.22%
Cc1ccc(S(=O)(=O)c2nnn3c2nc(N2CCCC(C)C2)c2cc(Cl)ccc23)cc1C (centres undefined)	inactive: -2.35%

SMILES	activity change, negative = cytotoxicity
Oc1c(C(c2ccccc2Cl)N2CCC(O)CC2)sc2nc(-c3ccco3)nn12 (centres undefined)	inactive: 11.6%
CCN(C(=O)Cn1cc(S(=O)(=O)N2CCN(c3ccccc3F)CC2)c2ccccc2c1=O)c1ccc(C)c(C)c1	inactive: 5.49%
Cc1ccc(NC(=O)Cn2c(=O)n(-c3ccccc3)c(=O)c3ccc(C(=O)NCc4ccc5c(c4)OCO5)cc32)cc1	inactive: -3.83%
Cc1ccc(C)c(NC(=O)c2cc(S(=O)(=O)N3CCN(c4cccc(Cl)c4)CC3)ccc2F)c1	inactive: 0.672%
CCN(Cc1ccccc1)C(=O)C1CCC(CNS(=O)(=O)c2ccc3c(c2)CCCC(=O)N3)CC1 (centres undefined)	inactive: -2.9%
CCc1ccc(NC(=O)c2sc(-n3nc(C)c(Cc4ccc5c(c4)OCO5)c3C)nc2C)cc1	inactive: 2.8%
Cc1ccc2oc(C(=O)Nc3ccc(S(=O)(=O)N4CCCCCC4)cc3)cc(=O)c2c1	inactive: 4.29%
COc1ccccc1NC(=O)Cn1nc2c3cc(F)ccc3n(Cc3cccc(C)c3)cc-2c1=O	inactive: -0.339%
CCOc1ccccc1NC(=O)Cn1c(=O)n(-c2ccc(C)c(C)c2)c(=O)c2oc3ccccc3c21	inactive: 3.34%
O=C(Oc1ccccc1F)c1nc(SCc2ccccc2F)ncc1Cl	inactive: 4.29%
CCOc1ccc(CNC(=O)c2cc(=O)[nH]c3ccc(S(=O)(=O)N4CCCCC4)cc23)cc1	inactive: -3.23%
Cc1cc(C)cc(Nc2cc(C(=O)NCCCN(Cc3ccccc3)C(C)C)c3ccccc3n2)c1	inactive: 4.28%
CC(C)OCCCNC(=O)CCCn1c(=O)[nH]c2ccsc2c1=O	inactive: 6.19%
Cc1ccc(CNC(=O)C2CCC(CNS(=O)(=O)c3ccc4c(c3)CCCC(=O)N4)CC2)cc1 (centres undefined)	inactive: 24.6%
Cc1cccc(-c2nc(CCNC(=O)c3ccco3)cs2)c1	inactive: -5.45%
CCOC(=O)c1ccc(NC(=O)CCS(=O)(=O)c2ccc(C)cc2)cc1	inactive: -11.8%
COc1ccc(N2CCN(S(=O)(=O)c3csc(C(N)=O)c3)CC2)cc1	inactive: -6.23%
Cc1cccc(C)c1OCCSc1nc2ccccc2n1CC(=O)O	inactive: 17.1%
O=C(Nc1cccc(-c2nc3ccccc3o2)c1)c1cc([N+](=O)[O-])ccc1N1CCOCC1	inactive: -14.5%
CC(=O)Nc1ccc(NS(=O)(=O)c2ccc3c(c2)CC(C)N3C(=O)C2CCC2)cc1 (centres undefined)	inactive: -29.2%
COc1ccc(-c2nc3c4cnn(-c5ccccc5F)c4ncn3n2)cc1	inactive: 6.57%
COC(=O)CC1Oc2ccc(F)cc2-n2cc(-c3ccc(Cl)cc3)nc21 (centres undefined)	inactive: 13%
